Measurements: the supplement of paper PMC8728848
The list shows a part of the results.

Key:
Test in all cases: glycan array binding signal (z-score within array); higher = stronger binding
Details in all cases: glycan notation: IUPAC condensed, linker removed
[1] = molecular target: Gal(b1-3)GlcNAc(b1-2)Man(a1-3)[Gal(b1-3)GlcNAc(b1-2)Man(a1-6)]Man(b1-4)GlcNAc(b1-4)GlcNAc
Method in brief: (§1)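 Negative Z-scores can be read as non-binding. The Z-score is calculated within each array and then averaged across arrays of one protein sequence at different concentrations or buffers and across linkers. Arrays, 3228 in all, were curated from the Consortium for Functional Glycomics database and kept only where the protein sequence was available.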

[2] = molecular target: Gal(b1-3)GlcNAc(b1-2)Man(a1-3)[Gal(b1-3)GlcNAc(b1-2)Man(a1-6)]Man(b1-4)GlcNAc(b1-4)[Fuc(a1-6)]GlcNAc
Method in brief: as §1

[3] = molecular target: Gal(b1-3)GlcNAc(b1-2)Man(a1-3)[GlcNAc(b1-4)][Gal(b1-3)GlcNAc(b1-2)Man(a1-6)]Man(b1-4)GlcNAc(b1-4)GlcNAc
Method in brief: as §1

[4] = molecular target: Gal(b1-3)GlcNAc(b1-2)[Gal(b1-3)GlcNAc(b1-6)]Man(a1-6)[Gal(b1-3)GlcNAc(b1-2)Man(a1-3)]Man(b1-4)GlcNAc(b1-4)GlcNAc
Method in brief: as §1

[5] = molecular target: Gal(b1-3)GlcNAc(b1-3)Gal(b1-3)GlcNAc
Method in brief: as §1

[6] = molecular target: Gal(b1-3)GlcNAc(b1-3)Gal(b1-4)Glc
Method in brief: as §1

[7] = molecular target: Gal(b1-3)GlcNAc(b1-3)Gal(b1-4)GlcNAc
Method in brief: as §1

[8] = molecular target: Gal(b1-3)GlcNAc(b1-3)Gal(b1-4)GlcNAc(b1-2)Man(a1-3)[Gal(b1-3)GlcNAc(b1-3)Gal(b1-4)GlcNAc(b1-2)Man(a1-6)]Man(b1-4)GlcNAc(b1-4)GlcNAc
Method in brief: as §1

[9] = molecular target: Gal(b1-3)GlcNAc(b1-3)Gal(b1-4)GlcNAc(b1-2)[Gal(b1-3)GlcNAc(b1-3)Gal(b1-4)GlcNAc(b1-6)]Man(a1-6)[Gal(b1-3)GlcNAc(b1-3)Gal(b1-4)GlcNAc(b1-2)Man(a1-3)]Man(b1-4)GlcNAc(b1-4)[Fuc(a1-6)]GlcNAc
Method in brief: as §1

[10] = molecular target: Gal(b1-3)GlcNAc(b1-3)Gal(b1-4)GlcNAc(b1-3)Gal(b1-4)GlcNAc(b1-2)[Gal(b1-3)GlcNAc(b1-3)Gal(b1-4)GlcNAc(b1-3)Gal(b1-4)GlcNAc(b1-6)]Man(a1-6)[Gal(b1-3)GlcNAc(b1-3)Gal(b1-4)GlcNAc(b1-3)Gal(b1-4)GlcNAc(b1-2)Man(a1-3)]Man(b1-4)GlcNAc(b1-4)[Fuc(a1-6)]GlcNAc
Method in brief: as §1

[11] = molecular target: Gal(b1-3)GlcNAc(b1-3)Gal(b1-4)GlcNAc(b1-6)[Gal(b1-3)GlcNAc(b1-3)]Gal(b1-4)Glc
Method in brief: as §1

[12] = molecular target: Gal(b1-3)GlcNAc(b1-3)Gal(b1-4)[Fuc(a1-3)]GlcNAc
Method in brief: as §1

[13] = molecular target: Gal(b1-3)GlcNAc(b1-3)Gal(b1-4)[Fuc(a1-3)]GlcNAc(b1-6)[Gal(b1-3)GlcNAc(b1-3)]Gal(b1-4)Glc
Method in brief: as §1

[14] = molecular target: Gal(b1-3)GlcNAc(b1-3)GalNAc
Method in brief: as §1

[15] = molecular target: Gal(b1-3)GlcNAc(b1-6)Gal(b1-4)GlcNAc
Method in brief: as §1

[16] = molecular target: Gal(b1-3)GlcNAc(b1-6)GalNAc
Method in brief: as §1

[17] = molecular target: Gal(b1-3)GlcNAc(b1-6)[Gal(b1-3)]GalNAc
Method in brief: as §1

Gal(b1-3)GlcNAc6S = molecular target: Gal(b1-3)GlcNAc6S
Method in brief: as §1

[18] = molecular target: Gal(b1-3)[Fuc(a1-4)]GlcNAc
Method in brief: as §1

[19] = molecular target: Gal(b1-3)[Fuc(a1-4)]GlcNAc(b1-2)Man
Method in brief: as §1

[20] = molecular target: Gal(b1-3)[Fuc(a1-4)]GlcNAc(b1-2)Man(a1-3)[Gal(b1-3)[Fuc(a1-4)]GlcNAc(b1-2)Man(a1-6)]Man(b1-4)GlcNAc(b1-4)[Fuc(a1-6)]GlcNAc
Method in brief: as §1

[21] = molecular target: Gal(b1-3)[Fuc(a1-4)]GlcNAc(b1-3)Gal(b1-3)[Fuc(a1-4)]GlcNAc
Method in brief: as §1

[22] = molecular target: Gal(b1-3)[Fuc(a1-4)]GlcNAc(b1-3)Gal(b1-4)[Fuc(a1-3)]GlcNAc
Method in brief: as §1

[23] = molecular target: Gal(b1-3)[Fuc(a1-4)]GlcNAc(b1-6)GalNAc
Method in brief: as §1

[24] = molecular target: Gal(b1-3)[GlcNAc(b1-6)]GalNAc
Method in brief: as §1

[25] = molecular target: Gal(b1-3)[Neu5Ac(a2-6)]GalNAc
Method in brief: as §1

[26] = molecular target: Gal(b1-3)[Neu5Ac(a2-6)]GlcNAc(b1-4)Gal(b1-4)Glc
Method in brief: as §1

[27] = molecular target: Gal(b1-3)[Neu5Ac(b2-6)]GalNAc
Method in brief: as §1

Gal(b1-4)Gal = molecular target: Gal(b1-4)Gal
Method in brief: as §1

[28] = molecular target: Gal(b1-4)GalNAc(a1-3)[Fuc(a1-2)]Gal(b1-4)GlcNAc
Method in brief: as §1

[29] = molecular target: Gal(b1-4)GalNAc(b1-3)[Fuc(a1-2)]Gal(b1-4)GlcNAc
Method in brief: as §1

Gal(b1-4)Glc = molecular target: Gal(b1-4)Glc
Method in brief: as §1

Gal(b1-4)Glc6S = molecular target: Gal(b1-4)Glc6S
Method in brief: as §1

Gal(b1-4)GlcNAc = molecular target: Gal(b1-4)GlcNAc
Method in brief: as §1

[30] = molecular target: Gal(b1-4)GlcNAc(a1-6)Gal(b1-4)GlcNAc
Method in brief: as §1

Gal(b1-4)GlcNAc(b1-2)Man = molecular target: Gal(b1-4)GlcNAc(b1-2)Man
Method in brief: as §1

[31] = molecular target: Gal(b1-4)GlcNAc(b1-2)Man(a1-3)Man(b1-4)GlcNAc(b1-4)GlcNAc
Method in brief: as §1

B1: AT5G01260(PC)(40) (Arabidopsis thaliana), Q9LFB0 (protein)
chain: MIGIGRTLTSSSPSKIILEDLPPGIYRYGTEIFTSVPRKTFHHIKFLRLDSAQSSRILKPVPLRSSSIKDSQVNVEDEEIEASNKTVRVRFQLRKECVFGEHFFIVGDDPVFGGLWDPETALPLNWSDGNVWTVDLDLPVGRLVEFKLLLKAQTGEILWQPGPNRALETWETNKTIRICEDWDNADLQMMIEEDFVPYTNISSIGSEDEDEVLGSVQQNSSVVAVENAGYVSDESAQNSSFSIQSEKTMEPSNGALTAREVIKEAMFTEEESPVLVPGLIPLSDLDNEQVEVINEGKAETFPEVDKKQEPKAERNKKAKVKAISLFEKSEQEAVKSVEQRQYNAVEEEQQRLETEPLGTPDVLFENDIQWGRRTLYKLLSNFRLF
- glycan array binding signal (z-score) [1]: 0.891
- glycan array binding signal (z-score) [2]: 0.082
- glycan array binding signal (z-score) [3]: 0.088
- glycan array binding signal (z-score) [4]: 0.097
- glycan array binding signal (z-score) [5]: -0.165
- glycan array binding signal (z-score) [6]: 0.239
- glycan array binding signal (z-score) [7]: -0.063
- glycan array binding signal (z-score) [8]: 0.194
- glycan array binding signal (z-score) [9]: 0.533
- glycan array binding signal (z-score) [10]: 0.184
- glycan array binding signal (z-score) [11]: -0.348
- glycan array binding signal (z-score) [12]: -0.113
- glycan array binding signal (z-score) [13]: -0.193
- glycan array binding signal (z-score) [14]: 0.137
- glycan array binding signal (z-score) [15]: -0.175
- glycan array binding signal (z-score) [16]: -0.301
- glycan array binding signal (z-score) [17]: -0.659
- glycan array binding signal (z-score) (Gal(b1-3)GlcNAc6S): 0.146
- glycan array binding signal (z-score) [18]: -0.278
- glycan array binding signal (z-score) [19]: -0.564
- glycan array binding signal (z-score) [20]: 0.147
- glycan array binding signal (z-score) [21]: -0.337
- glycan array binding signal (z-score) [22]: -0.007
- glycan array binding signal (z-score) [23]: 0.343
- glycan array binding signal (z-score) [24]: 0.411
- glycan array binding signal (z-score) [25]: -0.559
- glycan array binding signal (z-score) [26]: -0.456
- glycan array binding signal (z-score) [27]: -0.317
- glycan array binding signal (z-score) (Gal(b1-4)Gal): -0.32
- glycan array binding signal (z-score) [28]: -0.618
- glycan array binding signal (z-score) [29]: -0.511
- glycan array binding signal (z-score) (Gal(b1-4)Glc): -0.211
- glycan array binding signal (z-score) (Gal(b1-4)Glc6S): 0.576
- glycan array binding signal (z-score) (Gal(b1-4)GlcNAc): 0.708
- glycan array binding signal (z-score) [30]: -0.196
- glycan array binding signal (z-score) (Gal(b1-4)GlcNAc(b1-2)Man): 0.623
- glycan array binding signal (z-score) [31]: -0.715
